Our source for the IC50 values is patent US12583911B2, “Human immunodeficiency virus GP120 binding proteins” (ViiV Healthcare UK (No.5) Limited, priority 2022, dated 2026).

This assay relates to panel of HIV-1 envelopes (pseudotyped HIV-1 virus). The assay is described as follows: PSV assay (ACTOne cells), HIV-1 envelopes. The format is cell-based. How it is done:
The anti-viral activity of the antigen binding proteins was measured in a pseudotyped virus (PSV) assay.
PSV was produced in HEK-293T cells (ATCC, Manassas VA) by co-transfecting expression plasmids encoding the HIV-1 gp160 envelope gene and an HIV-1 backbone plasmid using TRANSIT-2020 transfection reagent (Mirus Bio, Madison WI). A panel of HIV-1 PSVs expressing different gp160 envelope trimers was generated to evaluate the effectiveness of the antigen binding proteins of the invention against a wide spectrum of HIV-1 strains.
The genome of PSV used in this assay contains a luciferase gene that is expressed once the virus enters cells. Accordingly, the luminescence signal (after adding a substrate of luciferase) can be used to determine the level of viral infection.
The 50% tissue culture infectious dose (TCID) of a single thawed aliquot of each batch of PSV was determined in ACTOne cells. The ACTOne cell-line used in this assay was derived in-house from a genetically engineered 293T cell clone that expresses CD4, CXCR4, and CCR5. Cells were maintained in growth medium composed of Dulbecco's modified Eagle's medium (DMEM, Life Technologies) at 37° C. in a humidified 5% CO2-95% air environment. Cell monolayers were split by treatment with Trypsin-EDTA (0.05%).
To run the anti-viral assay, ACTOne cells were detached by treating the cell culture flask with trypsin (trypsinization) and resuspended in growth medium containing 2% of DMSO to a density of 2.5×10^5 cells/ml. One hundred μl of such cells was added to 10 μl of antigen binding protein pre-loaded in a 96-well plate. Ninety μl of PSV was then added to each well. The assay plates were incubated at 37° C. in a humidified incubator at 5% CO2 level. Plates were developed after 72 hours of incubation by adding 50 μl of BRIGHTGLO luciferase reagent (Promega, Madison WI) to each well, and transferring the plates to an ENVISION multilabel plate reader (PerkinElmer, Waltham MA) to measure the luminescence and determine the level of virus that had infected the cells. The higher the luminescence signal, the higher the level of infection.

[1] abbreviates: envelope 0260.v5.c36, PSV assay.
Setting [2] is: envelope 3468_V1_C12, PSV assay.
Where [3] appears, read: envelope 6471_V1_C16, PSV assay.

B1: bNAb13: anti-V3 broadly neutralizing antibody; HC with LS SEQ ID NO:288, LC SEQ ID NO:289 (antibody)
heavy: QVQLQESGPGLVKPSETLSLTCTVSGDSINTGHHYWGWVRQVPGKGPEWIAHIHYNTAVLHNPALKSRVTISIFTLKNLITLSLSNVTAADTAVYFCVRSGGDILYYIEWQKPHWFYPWGPGILVTVSS[human IgG1 constant region with changes not given here]
light: QSALTQPPSASGSLGQSLTISCSGTGSDIGSWNFVSWYQQFPGRAPNLIIFEVNRRRSGVPDRFSGSKSGNTASLTVSGLRSEDEAEYFCSSLSGRWDIVFGGGTKVTVLGQPKAAPSVTLFPPSSEELQANKATLVCLISDFYPGAVTVAWKADSSPVKAGVETTTPSKQSNNKYAASSYLSLTPEQWKSHRSYSCQVTHEGSTVEKTVAPTECS
modifications: LS Fc mutation
For orientation: IC50 means the concentration that inhibits the measured activity by half. A high value points to lower potency. For B1, the IC50 is, setting by setting: (envelope 93UG065, PSV assay) 46.4 nM; under setting [1], 18.1 nM; (envelope 928_28, PSV assay) 201 nM; (envelope 3326_V4_C3, PSV assay) > 500 nM; under setting [2], > 500 nM; (envelope 3637_V5_C3, PSV assay) > 500 nM. Also, the IC50 runs as follows: under setting [3], 133 nM; (envelope 42368, PSV assay) > 500 nM; (envelope 620345_C1, PSV assay) > 500 nM; (envelope Q461_E2, PSV assay) > 500 nM; (envelope TH976_17, PSV assay) > 500 nM; (envelope X2088.C9, PSV assay) > 500 nM. For the same molecule, the IC50 (envelope YU-2, PSV assay) is 48.3 nM and half-maximal inhibition (envelope ZM106.9, PSV assay) (IC50) required 22.4 nM.

B2: bNAb15: anti-V3 broadly neutralizing antibody; HC with LS SEQ ID NO:298, LC SEQ ID NO:299 (antibody)
heavy: EVHLEESGPGLVRPSETLSLTCTASGGSIRGGEWGDSDYHWGWVRHSPEKGLEWIGSIHWRGTTHYNAPFRGRGRLSIDLSRNQFSLRLTSVTAEDTAVYYCVKHKYHDIVMVVPIAGWFDPWGQGLQVTVSS[human IgG1 constant region with changes not given here]
light: EIMMTQSPAILSVSPGDRATLSCRASQSVKNNLAWYQKRPGQAPRLLIFDTSSRASGIPARFSGGGSGTEFTLTVNSMQSEDFATYYCQQYEEWPRTFGQGTKVEIKRTVAAPSVFIFPPSDEQLKSGTASVVCLLNNFYPREAKVQWKVDNALQSGNSQESVTEQDSKDSTYSLSSTLTLSKADYEKHKVYACEVTHQGLSSPVTKSFNRGEC
modifications: LS Fc mutation
Regarding B2, the IC50 is, setting by setting: (envelope 3326_V4_C3) > 500 nM; (envelope 3468_V1_C12) > 500 nM; (envelope 3637_V5_C3) 5 nM; (envelope 42368) > 500 nM; (envelope Q461_E2) > 500 nM; (envelope X2088.C9) 2.58 nM. Besides, the IC50 (envelope ZM106.9) was 1.34 nM.

B3: bNAb3: anti-V3 broadly neutralizing antibody; HC with LS SEQ ID NO:73, LC SEQ ID NO:74 (antibody)
heavy: QVQLRESGPGLVKPSETLSLSCTVSNDSRPSDHSWTWVRQSPGKALEWIGDIHYNGATTYNPSLRSRVRIELDQSIPRFSLKMTSMTAADTGMYYCARNAIRIYGVVALGEWFHYGMDVWGQGTAVTVSSASTKGPSVFPLAPSSKSTSGGTAALGCLVKDYFPEPVTVSWNSGALTSGVHTFPAVLQSSGLYSLSSVVTVPSSSLGTQTYICNVNHKPSNTKVDKRV[human IgG1 Fc with changes not given here]
light: SSELTQPPSVSVSPGQTARITCSGAPLTSRFTYWYRQKPGQAPVLIISRSSQRSSGWSGRFSASWSGTTVTLTIRGVQADDEADYYCQSSDTSDSYKMFGGGTKLTVLGQPAAAPSVTLFPPSSEELQANKATLVCLISDFYPGAVTVAWKADSSPVKAGVETTTPSKQSNNKYAASSYLSLTPEQWKSHKSYSCQVTHEGSTVEKTVAPTEC
modifications: LS Fc mutation
Regarding B3, the IC50 is > 500 nM (envelope 42368, PSV assay); > 500 nM (envelope CAP45.2.00.G3, PSV assay); 38.3 nM (envelope CC1/85, PSV assay); 0.15 nM (envelope NL4-3, PSV assay); 0.03 nM (envelope X2088.C9, PSV assay); 0.03 nM (envelope ZM106.9, PSV assay).

B4: bNAb12: anti-V3 broadly neutralizing antibody; HC with LS SEQ ID NO:283, LC SEQ ID NO:284 (antibody)
heavy: QVQLQESGPGLVKPAETLSLTCSVSGESINTGHYYWGWVRQVPGKGLEWIGHIHYTTAVLHNPSLKSRLTIKIYTLRNQITLRLSNVTAADTAVYHCVRSGGDILYYYEWQKPHWFSPWGPGIHVTVSS[human IgG1 constant region with changes not given here]
light: QSALTQPPSASGSLGQSVTISCNGTSSDIGGWNFVSWYQQFPGRAPRLIIFEVNKRPSGVPGRFSGSKSGNSASLTVSGLQSDDEGQYFCSSLFGRWDVVFGGGTKLTVLGQPKAAPSVTLFPPSSEELQANKATLVCLISDFYPGAVTVAWKADSSPVKAGVETTTPSKQSNNKYAASSYLSLTPEQWKSHRSYSCQVTHEGSTVEKTVAPTECS
modifications: LS Fc mutation
Turning to B4, the IC50 by setting is: (envelope 93UG065, PSV assay) 3.17 nM; under setting [1], 5.19 nM; (envelope 928_28, PSV assay) 482 nM; (envelope 3326_V4_C3, PSV assay) > 500 nM; under setting [2], 344 nM; (envelope 3637_V5_C3, PSV assay) > 500 nM. Besides, the IC50 runs as follows: under setting [3], > 500 nM; (envelope 42368, PSV assay) 344 nM; (envelope 620345_C1, PSV assay) 179 nM; (envelope Q461_E2, PSV assay) 41.9 nM; (envelope TH976_17, PSV assay) > 500 nM; (envelope X2088.C9, PSV assay) > 500 nM. This molecule also registered an IC50 (envelope YU-2, PSV assay) of 77.4 nM and a concentration for half-maximal inhibition (IC50) (envelope ZM106.9, PSV assay) of 1.85 nM.

B5: bNAb11: anti-V3 broadly neutralizing antibody; HC with LS SEQ ID NO:278, LC SEQ ID NO:279 (antibody)
heavy: QPQLQESGPGLVEASETLSLTCTVSGDSTGRCNYFWGWVRQPPGKGLEWIGSLSHCRSYYNTDWTYHNPSLKSRLTISLDTPKNQVFLRLTSVTAADTATYYCARFGGEVLVYRDWPKPAWVDLWGRGTLVTVSS[human IgG1 constant region with changes not given here]
light: QSALTQPPSASGSPGQSITISCTGTSNNFVSWYQQYPGKAPKLVIYEVNKRPSGVPDRFSGSKSGSTASLTVSGLQADDEGVYYCSSLVGNWDVIFGGGTKLTVLGQPKAAPSVTLFPPSSEELQANKATLVCLISDFYPGAVTVAWKADSSPVKAGVETTTPSKQSNNKYAASSYLSLTPEQWKSHRSYSCQVTHEGSTVEKTVAPTECS
On to B5, for which the IC50 runs as follows: (envelope 93UG065, PSV assay) 89.5 nM; under setting [1], 0.57 nM; (envelope 928_28, PSV assay) > 500 nM; (envelope 3326_V4_C3, PSV assay) > 500 nM; under setting [2], > 500 nM; (envelope 3637_V5_C3, PSV assay) > 500 nM. Besides, the IC50 under setting [3] was found to be 253 nM; the IC50 (envelope 42368, PSV assay) is > 500 nM; half-maximal inhibition (envelope 620345_C1, PSV assay) (IC50) was put at 438 nM; the IC50 (envelope Q461_E2, PSV assay) is > 500 nM; the IC50 (envelope TH976_17, PSV assay) was > 500 nM; the IC50 (envelope X2088.C9, PSV assay) came to 95.1 nM. Also, half-maximal inhibition (envelope YU-2, PSV assay) (IC50) required 0.76 nM and the IC50 (envelope ZM106.9, PSV assay) came to 73.7 nM.

B6: bNAb16: anti-V3 broadly neutralizing antibody; HC with LS SEQ ID NO:303, LC SEQ ID NO:304 (antibody)
heavy: EVQLVESGGGLVKPGGSLRLTCVASGFTFSDVWLNWVRQAPGKGLEWVGRIKSRTDGGTTDYAASVKGRFTISRDDSKNTLYLQMNSLKTEDTAVYSCTTDGFIMIRGVSEDYYYYYMDVWGKGTTVTVSS[human IgG1 constant region with changes not given here]
light: QSVLTQPPSVSAAPGQKVTISCSGSSSNIGNNYVLWYQQFPGTAPKLLIYGNNKRPSGIPDRFSGSKSGTSATLGITGLQTGDEADYFCATWDSGLSADWVFGGGTKLTVLGQPKAAPSVTLFPPSSEELQANKATLVCLISDFYPGAVTVAWKADSSPVKAGVETTTPSKQSNNKYAASSYLSLTPEQWKSHRSYSCQVTHEGSTVEKTVAPTECS
modifications: LS Fc mutation
B6: the IC50 is > 500 nM (envelope 3326_V4_C3); > 500 nM (envelope 3468_V1_C12); > 500 nM (envelope 3637_V5_C3); > 500 nM (envelope 42368); > 500 nM (envelope Q461_E2); 289 nM (envelope X2088.C9). Also, the IC50 (envelope ZM106.9) is > 500 nM.
